Measurements reported in the supplement of paper PMC12217912.
The list shows a part of the results. The full chains were built here from the parent and the listed change. Values near 0.05 are background.

B1: TEV protease; numbered along this chain (parent)
chain: MGESLFKGPRDYNPISSSICHLTNESDGHTTSLYGIGFGPFIITNKHLFRRNNGTLVVQSLHGVFKVKDTTTLQQHLVDGRDMIIIRMPKDFPPFPQKLKFREPQREERICLVTTNFQTKSMSSMVSDTSCTFPSGDGIFWKHWIQTKDGQCGSPLVSTRDGFIVGIHSASNFTNTNNYFTSVPKNFMELLTNQEAQQWVSGWRLNADSVLWGGHKVFMVKPEEPFQPVKEATQL

Variants of: B1
Test: raw area under fraction-flipped curve 0-4 h after induction (AUC4h, not background-subtracted), DNA-recorder readout of cleavage of the substrate (dimensionless); higher = more cleavage of the substrate by the protease variant
Conditions: temperature: 34 °C; time window: 0-4 h after rhamnose induction
Experimental: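 In vivo DNA recorder in E. coli TOP10(DE3) ΔrhaA at 34 °C. Each TEVp single-site mutant (parent TEVp 0) is paired with a single-site variant of the 7-mer TEVs (canonical ENLYFQ|S). The substrate sits between flexible linkers in a Bxb1-sfGFP-TEVs-SsrA fusion, so cleavage stabilises Bxb1 and speeds flipping of a recombination array, read by NGS. The value is the raw area under the fraction-flipped curve over 0-4 h after rhamnose induction (AUC4h), with ≥20 reads per time point. It is not background-subtracted; inactive controls average about 0.047.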
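Note: Bxb1 expression induced with 0.2% (w/v) L-rhamnose at OD600 near 0.5, cultures sampled hourly, flipped fraction per protease–substrate barcode pair counted by paired-end Illumina sequencing.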

Variant	area with substrate ENLYFAS	area with substrate ENLYFCS	area with substrate ENLYFDS	area with substrate ENLYFES	area with substrate ENLYFFS	area with substrate ENLYFGS	area with substrate ENLYFHS	area with substrate ENLYFIS	area with substrate ENLYFKS	area with substrate ENLYFMS	area with substrate ENLYFPS	area with substrate ENLYFRS	area with substrate ENLYFSS	area with substrate ENLYFTS	area with substrate ENLYFVS	area with substrate ENLYFWS	area with substrate ENLYFYS	area with substrate ENLYFLS	area with substrate ENLYFNS
MGESLFKGPRDYNPISSSICHLPNESDGHTTSLYGIGFGPFIITNKHLFRRNNGTLVVQSLHGVFKVKDTTTLQQHLVDGRDMIIIRMPKDFPPFPQKLKFREPQREERICLVTTNFQTKSMSSMVSDTSCTFPSGDGIFWKHWIQTKDGQCGSPLVSTRDGFIVGIHSASNFTNTNNYFTSVPKNFMELLTNQEAQQWVSGWRLNADSVLWGGHKVFMVKPEEPFQPVKEATQL [T23P]	0.0339	0.04	0.0372	0.0654	0.0442	0.0477	0.038	0.0367	0.0558	0.0348	0.0495	0.0465	0.0639	0.0441	0.041	0.0463	0.0429		
MGESLFKGPRDYNPISSCICHLTNESDGHTTSLYGIGFGPFIITNKHLFRRNNGTLVVQSLHGVFKVKDTTTLQQHLVDGRDMIIIRMPKDFPPFPQKLKFREPQREERICLVTTNFQTKSMSSMVSDTSCTFPSGDGIFWKHWIQTKDGQCGSPLVSTRDGFIVGIHSASNFTNTNNYFTSVPKNFMELLTNQEAQQWVSGWRLNADSVLWGGHKVFMVKPEEPFQPVKEATQL [S18C]	0.0718	0.0675	0.057	0.0638			0.0759	0.0564	0.0548	0.0673	0.0566	0.0603	0.0646	0.0612	0.0629		0.0547	0.0604	0.0641
MGESLFKGPRDYNPISSSICPLTNESDGHTTSLYGIGFGPFIITNKHLFRRNNGTLVVQSLHGVFKVKDTTTLQQHLVDGRDMIIIRMPKDFPPFPQKLKFREPQREERICLVTTNFQTKSMSSMVSDTSCTFPSGDGIFWKHWIQTKDGQCGSPLVSTRDGFIVGIHSASNFTNTNNYFTSVPKNFMELLTNQEAQQWVSGWRLNADSVLWGGHKVFMVKPEEPFQPVKEATQL [H21P]	0.044	0.0522	0.0472	0.0525	0.0526	0.0573	0.0712	0.0465	0.058	0.034	0.0549	0.0518		0.0445	0.0634	0.0461	0.0453	0.0456	0.0367
MGESLFKGPRDYNPISSSICHLTDESDGHTTSLYGIGFGPFIITNKHLFRRNNGTLVVQSLHGVFKVKDTTTLQQHLVDGRDMIIIRMPKDFPPFPQKLKFREPQREERICLVTTNFQTKSMSSMVSDTSCTFPSGDGIFWKHWIQTKDGQCGSPLVSTRDGFIVGIHSASNFTNTNNYFTSVPKNFMELLTNQEAQQWVSGWRLNADSVLWGGHKVFMVKPEEPFQPVKEATQL [N24D]	0.0137	0.0657	0.0621	0.0571	0.0603	0.0609	0.0432	0.0474	0.0563	0.0625	0.0515	0.0721	0.0777	0.0599	0.0267	0.0438	0.0408	0.0614	0.0558
